Structures are written as SMILES. The whole screen tested about 48,000 compounds, of which about 450 (0.94%) were called active. Inconclusive results (about 19%) are left out. Calls come from the whole dose curve; as a rule, active = well fitted inhibition curve with a large enough effect; inconclusive = small, poorly fitted or top-dose-only effect; inactive = no such curve, though single readings can be large or run the other way. Some of the results follow.
Potency is the fitted concentration of half-maximal effect.

The experiment is described as follows: Primary qHTS for Identification of Small Molecule Inhibitors of Huntingtin Promoter Activity. Note: nearly all actives have a fitted effect of over 50% in size. Conditions: HEK293 HTT promoter firefly luciferase reporter (activity 0% = vehicle and -100% = no light), 24 h; series mostly up to 57.5 µM; activity change, negative = inhibition: at the top concentration. The method, boiled down:
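Quantitative HTS used concentration series of up to 57.5 uM final on HEK293 luciferase reporter cells, 24 h at 37 degrees C. Readout was Dual-Glo firefly luminescence.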
(qHTS replaces the single test concentration by a dilution series.)
On to `Cn1c(=O)[nH]c2cc(-c3noc(-c4ccc(C#N)cc4)n3)ccc21`, for which the “activity change, negative = inhibition” value is inactive: -2.67%.

As to `Cc1cc(C)n(-c2nnc(Nc3ccc(C)c(Cl)c3)c3ccccc23)n1`, the “activity change, negative = inhibition” value is inactive: -29.8%.

As to `COc1ccc(C2=NC(C)(C)N(CC(=O)Nc3cccc(C)c3)C2=O)cc1`, the “activity change, negative = inhibition” value is inactive: -28.8%.

Turning to `CN(C)C(=O)c1c(NC(=O)c2ccccc2F)sc2c1CCCC2`, the “activity change, negative = inhibition” value was inactive: -13.6%.

Turning to `CC(=O)Nc1ccc(S(=O)(=O)NCC2CCC(C(=O)NCCN(CC(C)C)CC(C)C)CC2)cc1` (stereo not drawn), the “activity change, negative = inhibition” value is inactive: -15.4%.

For the molecule `O=C(COc1ccc2ccccc2c1)NC1CC(=O)N(c2cccc(F)c2)C1` (stereo not drawn), the “activity change, negative = inhibition” value is inactive: -10.3%.

Turning to `Nc1nc2ccc([N+](=O)[O-])cc2s1`, the “activity change, negative = inhibition” value is inactive: 10% [at 116 µM].

Consider `Cc1ccc(S(=O)(=O)Nc2nc3n(n2)C(c2ccc(F)cc2)C=C(c2ccccc2)N3)cc1` (stereo not drawn), for which the “activity change, negative = inhibition” value is inactive: -8.71%.

On to `CC1=C(C(=O)Nc2ccc(Cl)cc2)C(CC(C)C)n2nc(SCc3ccccc3C)nc2N1` (stereo not drawn), for which the “activity change, negative = inhibition” value was inactive: -12.9%.

Take `COc1ccccc1CNS(=O)(=O)c1cnc(N)nc1`: the “activity change, negative = inhibition” value is inactive: -4.85%.

`O=C(NCC(c1ccco1)S(=O)(=O)c1cccs1)c1ccccc1F` (stereo not drawn): the “activity change, negative = inhibition” value was inactive: 33.2%.

`COc1cccc(CNc2cc(C)nc3nc(-c4ccc(C)cc4)nn23)c1`: the “activity change, negative = inhibition” value is inactive: -6.31%.

As for `Cc1ccc(N2CC(C)Cn3c2nc2c3c(=O)n(Cc3cccc(Cl)c3)c(=O)n2C)cc1` (stereo not drawn), the “activity change, negative = inhibition” value was inactive: -2.77%.

For the molecule `CCCc1cc(=O)[nH]c2nnc(SCC)n12`, the “activity change, negative = inhibition” value is inactive: -5.37%.

For the molecule `O=c1oc2ccc3ccccc3c2cc1-c1nnc(Nc2ccc(F)cc2)s1`, the “activity change, negative = inhibition” value was inactive: -2.84%.

In the case of `O[C@@H](c1cc(C(F)(F)F)nc2c(C(F)(F)F)cccc12)[C@H]1CCCCN1`, the “activity change, negative = inhibition” value was inactive: -27.8%.

As to `Cc1ccc(-n2nc3c(=O)n(C(C)C(=O)NCc4ccco4)nc(C)c3c2C)cc1` (stereo not drawn), the “activity change, negative = inhibition” value was inactive: -25%.

Turning to `NS(=O)(=O)c1cc2c(cc1C(F)(F)F)NC(Cc1ccccc1)NS2(=O)=O` (stereo not drawn), the “activity change, negative = inhibition” value is inactive: 9.05%.

As for `O=C(NC1(C(F)(F)F)NC(=O)N(CCc2ccccc2)C1=O)c1ccc(Cl)cc1` (stereo not drawn), the “activity change, negative = inhibition” value was inactive: -26.3%.

As to `COC(=O)CC1Oc2ccc(Cl)cc2-n2cc(-c3ccccc3)nc21` (stereo not drawn), the “activity change, negative = inhibition” value is inactive: -12.7%.

On to `Oc1c(C(c2ccccc2)N2CCC(O)CC2)sc2nc(-c3ccco3)nn12` (stereo not drawn), for which the “activity change, negative = inhibition” value is inactive: -8.15%.

On to `CCCCOc1cccc(C(=O)N(Cc2ccc(C)o2)c2ccccn2)c1`, for which the Potency is active: 28.2 µM.

Take `Cc1ccc(C)c(NC(=O)c2ccc(CN3CC(=O)N4CCCCC4C3=O)cc2)c1` (stereo not drawn): the “activity change, negative = inhibition” value is inactive: -25.8%.

Take `CC(=O)Nc1ccc(NC(=O)c2ccc3c(c2)N(Cc2cccc(Cl)c2)C(=O)c2ccccc2S3(=O)=O)cc1`: the “activity change, negative = inhibition” value was inactive: -22.3%.

For the molecule `CCOC(=O)C(C)Sc1ccc2nnc(CCNS(=O)(=O)c3ccccc3)n2n1` (stereo not drawn), the “activity change, negative = inhibition” value was inactive: -2.57%.

As to `CCn1c(CN2CCCCC2)nc2cc(NC(=O)c3cc(OC)c(OC)c(OC)c3)ccc21`, the “activity change, negative = inhibition” value is inactive: -15.7%.

With `CC1N=C2c3ccccc3N=C(SCC(=O)NCCc3ccccc3)N2C1=O` (stereo not drawn), the “activity change, negative = inhibition” value was inactive: -22.4%.

On to `CN(Cc1ccccc1)C(=O)c1nc(-c2ccc(Cl)cc2)n2c1CCCCC2`, for which the “activity change, negative = inhibition” value is inactive: -22%.

As to `COc1cccc(N2CCN(C(=O)CCCCCn3c(=O)[nH]c4ccccc4c3=O)CC2)c1`, the “activity change, negative = inhibition” value was inactive: -17.5%.

On to `CC1CCn2c(nc3cc(C(=O)NCc4ccc(OC(C)C)cc4)ccc32)C1` (stereo not drawn), for which the “activity change, negative = inhibition” value was inactive: 45.2%.

On to `CCC(C(=O)NC1CCC(C)CC1)n1nc(C)c2sc3ccccc3c2c1=O` (stereo not drawn), for which the “activity change, negative = inhibition” value was inactive: 44.5%.

As to `CC(C)c1ccc(NC(=O)CSc2nc3ccccc3nc2Cc2ccccc2)cc1`, the “activity change, negative = inhibition” value was inactive: -8.63%.

On to `COc1ccccc1CNC(=O)C1CCN(S(=O)(=O)c2ccc3c(c2)CCCN3C(C)=O)CC1`, for which the “activity change, negative = inhibition” value was inactive: -19.4%.

With `CN(C)CCNC(=O)C(=O)NCC(c1cccnc1)N1CCN(c2ccc(F)cc2)CC1` (stereo not drawn), the “activity change, negative = inhibition” value is inactive: -1.78%.

With `CCOc1ccccc1NC(=O)Cn1nnc(C(=O)NCc2ccc(F)cc2)c1N`, the “activity change, negative = inhibition” value was inactive: -12.9%.

As to `Cc1ccc(S(=O)(=O)N(C)Cc2nc(-c3ccccc3)oc2C)cc1`, the “activity change, negative = inhibition” value was inactive: 0%.

In the case of `CCc1nc2nc(C)c(NS(=O)(=O)c3ccc(C)cc3)c(=O)n2[nH]1`, the “activity change, negative = inhibition” value is inactive: -6.64%.

As for `COc1ccc(-c2c(C)nn3c(C(F)(F)F)cc(-c4ccccc4)nc23)cc1`, the “activity change, negative = inhibition” value was inactive: 1.95%.

In the case of `COc1ccc(OC)c(NC(=O)c2cc(C3CC3)nc3c2c(C)nn3-c2ccc(C)cc2)c1`, the “activity change, negative = inhibition” value is inactive: -13.2%.

`Cc1cc(C)cc(NC(=O)Cc2c(C(=O)O)c(C)cn2C)c1`: the “activity change, negative = inhibition” value is inactive: -6.97%.

Consider `O=C(Cn1cc(SCc2ccccc2F)c2ccccc21)N1CCCCC1`, for which the “activity change, negative = inhibition” value is inactive: 14.5%.

Take `O=C(NCc1ccco1)c1ccc2c(c1)N(Cc1c(F)cccc1Cl)C(=O)c1ccccc1S2`: the “activity change, negative = inhibition” value was inactive: -22.6%.

`CCCCCCCCCCCCCCCCC(C(=O)O)C(O)(CC(=O)O)C(=O)O` (stereo not drawn): the “activity change, negative = inhibition” value is inactive: 11.5%.

Consider `CC(=O)c1cccc(NC(=O)C2CCN(S(=O)(=O)c3ccc4[nH]c(=O)ccc4c3)CC2)c1`, for which the “activity change, negative = inhibition” value was inactive: -2.56%.

With `Cc1ccc(CNC(=O)C2CCN(Cc3nc(-c4cccc(Br)c4)oc3C)CC2)cc1`, the “activity change, negative = inhibition” value was inactive: -1.89%.

As to `CCOc1ccc(-n2c(=O)c3c4c(sc3n(CC(=O)NC(C)CC)c2=O)CCCC4)cc1` (stereo not drawn), the “activity change, negative = inhibition” value is inactive: 6.02%.

`Cc1cccc(-n2c(=O)c3ccccc3n(Cc3ccccc3)c2=O)c1`: the “activity change, negative = inhibition” value is inactive: -24.3%.

Regarding `Cc1ccc(-n2nc3ccc(NC(=O)COc4ccccc4)cc3n2)cc1Cl`, the “activity change, negative = inhibition” value is inactive: 1.85%.

(Values after PubChem BioAssay AID1508623 (National Center for Advancing Translational Sciences (NCATS), 2021).)
